# In all, about 33,000 sequences were measured (“E-score (-0.5 to 0.5)”: median about -0.013, highest 2% from about 0.3 on). The list shows a part of the results.
# Biological target: T1, Msn1 (UniProt P22148)
# T1 sequence: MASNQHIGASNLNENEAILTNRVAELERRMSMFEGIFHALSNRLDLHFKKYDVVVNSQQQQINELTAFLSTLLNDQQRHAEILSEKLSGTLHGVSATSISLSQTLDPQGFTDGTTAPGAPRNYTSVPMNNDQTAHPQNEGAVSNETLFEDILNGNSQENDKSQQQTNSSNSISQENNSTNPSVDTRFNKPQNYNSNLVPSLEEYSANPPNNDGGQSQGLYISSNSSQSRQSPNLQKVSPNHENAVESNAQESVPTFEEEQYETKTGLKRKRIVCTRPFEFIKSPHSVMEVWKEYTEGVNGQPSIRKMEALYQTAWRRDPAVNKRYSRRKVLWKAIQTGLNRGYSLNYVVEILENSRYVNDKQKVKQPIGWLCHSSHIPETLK
# Experiment: PBM E-score (8-mer binding enrichment) (E-score (-0.5 to 0.5)); higher = stronger / more preferred TF binding; most listed sequences are background and not binding sites
# Details: protein concentration: 200 nM; construct: GST-full length
# Method: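 Universal 'all 10-mer' protein binding microarrays (Agilent AMADID 015681) probed with GST-tagged S. cerevisiae TFs (full-length or DBD) made by in vitro transcription/translation (PURExpress), about 100-200 nM. Bound TF was detected with fluorescent anti-GST. Each ungapped 8-mer (which stands for itself and its reverse complement) is scored by the PBM enrichment score (E-score), a modified Wilcoxon-Mann-Whitney statistic from -0.5 to +0.5, computed with the Universal PBM Analysis Suite. Scale: above 0.35 generally sequence-specific binding.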
row,Sequence,PBM E-score
1,AGCCGCTC,-0.0659
2,CCATAAGA,0.127
3,CTCATGAG,-0.0174
4,GAACTAGC,0.0138
5,GCTTCAGA,-0.113
6,ATCCAAAA,0.15
7,GGTTTACA,0.00093
8,AAGGCCTG,-0.191
9,AGCGGGGC,-0.0893
10,ACCATACG,0.00344
11,AGCGAATG,-0.207
12,ATTAGCTG,-0.0513
13,AAACATGC,-0.0353
14,AGTAACGC,-0.119
15,TAATTACA,0.107
16,AAAGTTTA,0.172
17,GATGAAAC,-0.0473
18,CGGGCGCA,-0.113
19,ATCGAAAA,0.0262
20,GCGTCACC,-0.162
21,CAGAAACG,0.0904
22,AACCTTCC,-0.283
23,CTGAAATA,0.202
24,AAAGTACC,0.2
25,TATAGAAA,0.0717

row,Sequence,PBM E-score
1,AGACCGTC,-0.148
2,CCTCCGCG,-0.073
3,ACATAGGC,0.0383
4,ATAGCCAC,0.00714
5,CCGATGTA,0.0813
6,CTTCTACC,-0.129
7,CTGCGGGC,-0.208
8,CTGCGGCC,-0.0276
9,GTTCGCAA,0.122
10,ACTATAGT,0.113
11,AATATCAG,0.196
12,CAGTCGTA,-0.0822
13,GAAGTACC,-0.0435
14,GTCTCGCA,0.0474
15,GGCCCCCC,-0.421
16,GAAATAGA,-0.0139
17,ACAACACC,0.0364
18,AATCGGGT,0.176
19,CTTAAAAC,0.196
20,CATTAAAG,0.0284
21,CGCTAGAC,-0.0952
22,CGCCGGCG,0.204
23,CACCAACG,0.185
24,AAAGCTAC,-0.161
25,CTCCTCTA,-0.208

row,Sequence,PBM E-score
1,GCATTCGA,0.0535
2,CAGCAAAA,0.0953
3,CCCCCGCG,-0.363
4,TCGTCTCA,0.0221
5,CTCTTACC,0.0706
6,AAATTTCG,0.166
7,AGCAGCCT,-0.19
8,GGGTAAAA,0.145
9,CCGTAAAA,0.0607
10,CTTGCCCA,0.0297
11,GACGGAAA,0.106
12,ACACGGGG,-0.0186
13,AGGAAACC,-0.133
14,AGTCAGTG,-0.0432
15,AATGAGAG,-0.161
16,AACACTGT,-0.00322
17,CCGCGGAC,0.123
18,ATTGGCCC,-0.124
19,AACTTAAA,0.195
20,ATACTACA,0.213
21,CACCAGCG,-0.152
22,AACGTTTC,0.0583
23,GGACGACA,0.236
24,CGCAGAAA,0.0619
25,GGTAGTGA,-0.0547

row,Sequence,PBM E-score
1,CAGTAAAG,-0.152
2,GCAGCGAA,0.0208
3,AGGAACAG,-0.168
4,CTACAGAC,-0.0345
5,ATTCTAGG,0.155
6,ATCCTAAT,-0.0206
7,ACCCAGCA,-0.111
8,ATCATCTA,-0.045
9,CATTGGCG,-0.24
10,ATAGTGAC,-0.0106
11,CCTTGTTC,-0.169
12,CACCCAGA,0.00561
13,CAAGAACG,0.0575
14,ATGGTTGC,-0.269
15,ATGACGTA,0.145
16,ATCAAATA,0.0651
17,ATGTTTTC,0.172
18,GATGTGCA,-0.0778
19,ATACCTGC,-0.243
20,CGAGACAA,0.365
21,AGCTAATG,0.0197
22,CCATTCAA,0.0362
23,ATCGTAAT,-0.0298
24,ACTTAACA,0.0857
25,AGCTCACG,-0.0597

row,Sequence,PBM E-score
1,ACAAAGCA,0.245
2,CGCTACAC,-0.231
3,CGCCGCGC,0.033
4,GAGTGAAC,-0.164
5,TATCGCAA,0.015
6,CAGAAGCC,-0.241
7,CACTATAC,0.0205
8,GGAGACAC,0.0421
9,AATGTGTA,0.125
10,AGGGACGG,-0.35
11,ATACAAGG,0.122
12,CACAACTC,0.0628
13,ATGCATCA,0.0648
14,AAACGCCC,-0.167
15,GCATCTCA,-0.0389
16,CAAACAAG,0.0508
17,CTTTATCA,0.201
18,GCAGCGCA,-0.203
19,ACAGCATA,0.0958
20,AGTTTACC,-0.0158
21,ACCGGCAA,-0.081
22,GACGACAC,0.131
23,CAGATGAA,0.156
24,AACAGCCG,-0.0973
25,ACTCTCTA,0.114

row,Sequence,PBM E-score
1,AATGTCAG,0.254
2,CAAAGATC,0.136
3,GCCGACGC,0.0201
4,CCTAGGCC,-0.192
5,AGATTCAG,-0.0889
6,CAAAGGGG,-0.0101
7,ACTCTCCT,-0.0918
8,AGCCAGCG,-0.15
9,CGGAGTGA,0.0725
10,ATGCTATC,-0.105
11,CTAAGTGA,0.0358
12,CAGTTACG,-0.0781
13,TCCAGAAA,0.0933
14,GGTGAGAA,-0.0685
15,CACTTGCA,-0.0887
16,CAAGGCGA,-0.0587
17,ACTCGATC,-0.00093
18,ACTGTGAA,0.0324
19,ACTCTATG,-0.194
20,ACGGTCAG,-0.117
21,AGGAAACG,-0.017
22,TGAGGCAA,-0.0211
23,CCCGTAAC,-0.0775
24,GACTTAGA,0.027
25,ACATTGAG,0.134

row,Sequence,PBM E-score
1,TCCGCGGA,0.104
2,CACCCTTC,-0.215
3,TTACATAA,0.0155
4,CAACAAAA,0.0735
5,CTCCGGAG,0.0152
6,AACCCTCG,-0.107
7,CCTCGCAA,-0.125
8,GCGCGCCA,0.16
9,ACATCTAA,0.00922
10,GTGGTTTA,0.133
11,CAGAGCGA,0.0759
12,TTATTCAA,0.248
13,AGGGGCGA,-0.345
14,AGCAGTAA,-0.155
15,AGGGTCCA,-0.141
16,AGTCAAAT,0.0314
17,ATGATAGG,-0.0635
18,GCATACGC,-0.124
19,ATACCCGA,0.0193
20,ACTCTTGC,-0.0192
21,AGAGTAGG,0.0296
22,CGCTTCAC,-0.165
23,GGGGAACA,-0.0474
24,ATCTGAGG,0.0541
25,CGACCCAA,0.00093

row,Sequence,PBM E-score
1,GAATTGTC,0.392
2,CTCCCGCC,-0.096
3,ACGTTCTC,0.0126
4,AGCAGAGG,-0.194
5,CCCCATAA,-0.103
6,CCTATTAG,0.0445
7,AGGGATTC,-0.045
8,CAGCATCG,-0.0468
9,CGCTGGCA,0.00356
10,CCATATGC,0.124
11,GCAGGACC,-0.0863
12,GTTTCCGA,0.0235
13,CCACTATA,0.133
14,CCCATTCG,-0.194
15,GCCGGAGC,-0.0769
16,AAGCCCTG,-0.214
17,AATTTTGC,0.0375
18,AATATGCG,0.0982
19,GAAATGAC,0.216
20,AGAATGCC,0.0124
21,AGTGAACA,0.0807
22,TGGTCGAA,-0.224
23,TAGAAATA,0.0788
24,GATTTGTA,0.31
25,GTTGTTGA,0.0826

row,Sequence,PBM E-score
1,CGCTTTAG,-0.0315
2,GATCTATA,0.102
3,CTGGCCAC,-0.0526
4,ACCTGTCC,0.297
5,AGTTAGCC,-0.0848
6,CAAACCCG,0.169
7,GGAACTGA,-0.00145
8,ACGGATAG,-0.0859
9,ATGTAAGG,0.0666
10,CGCTTCTC,-0.093
11,GACTAATA,0.283
12,CCAGAGCC,-0.199
13,CAGCGTCG,-0.0618
14,ACGGCCGA,0.179
15,CATGTTTA,0.027
16,CATTCACA,-0.00532
17,ACTTGCTC,-0.118
18,CTCTTCTC,-0.328
19,CCCAGGCG,-0.144

# From the supplement of paper PMC3334620
